± gives the standard deviation of the averaged measurements. Growth of baker's yeast expressing single-residue variants of Pneumocystis jirovecii dihydrofolate reductase in 8.8 or 44 µM methotrexate (about 75% and 90% inhibition of the wild type). Selection coefficient per generation; 0 = like wild type, above 0 = less sensitive, below 0 = more sensitive or loss of function. No active / inactive call per row; the paper calls resistant above 0.220 (8.8 µM) or 0.243 (44 µM) together with a significance test. At 44 µM about 15% of codons end with one read or none, so the lowest values are floors (replicate rank correlation 0.74; 0.94 at 8.8 µM).
B1: UniProt A0EPZ9; numbered along this chain (parent)
chain: MDWQKSLTLIVALTLSRGIGLKNDLPWKLKSDMMFFSRVTSGLLVTRSTGQMNVVLMGRKTWESLPAHSRPLKNRINVVISRQEVLDLGGGAYHARSLDDALALLSQIYDSTSKIQLNRVFVIGGGELCKAAMEHSRLNRIIATVIHNEVDCDVFFPIDFRSSQSCLPWRKQDHSVLEAWVGSKVPQGKINENGFIYEFEMWIRDI

Variants of: B1
Assay: selection coefficient against synonymous wild-type codons (log2 per generation); higher = faster growth than wild type
Conditions: with Saccharomyces cerevisiae carrying the variant on a plasmid
Experimental: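 Pooled growth of yeast carrying single-residue variants of P. jirovecii dihydrofolate reductase (own DFR1 gene intact), two passages at 30 °C, three cultures, sequenced before and after. Codons with under 15 starting reads are left out; codons of one change are averaged.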

Variant | selection coefficient against synonymous wild-type codons (log2) (methotrexate 8.8 µM) | selection coefficient against synonymous wild-type codons (log2) (methotrexate 44 µM)
MDWQKSLTLIVALTLSRGIGLKNDLPWKLKSDMMFFSRVTSGLLVTRSTGQMNVVLMGRKTWESLPAHSRPLKNRINVVISRQEVLDLGGGAYHARSLDDALALLSQIYDSTSKIQLNRVFVIGGGELCKAAMEHSRLNRIIATVIHNEVDCDVFFPIDFRSSQSCLPCRKQDHSVLEAWVGSKVPQGKINENGFIYEFEMWIRDI [W169C] | -0.142 ± 0.08 | -0.205 ± 0.062
MDWQKSLTLIVALTLSRGIGLKNDLPWKLKSDMMFFSRVTSGLLVTRSTGQMNVVLMGRKTWESLPAHSRPLKNRINVVISRQEVLDLGGGAYHARSLDDALALLSQIYDSTSKIQLNRVFVIGGGELCKAAMEHSRLNRIIATVIHNEVDCDVFFPIDFRSSQSCLPDRKQDHSVLEAWVGSKVPQGKINENGFIYEFEMWIRDI [W169D] | -0.75 ± 0.1 | -0.399 ± 0.07
MDWQKSLTLIVALTLSRGIGLKNDLPWKLKSDMMFFSRVTSGLLVTRSTGQMNVVLMGRKTWESLPAHSRPLKNRINVVISRQEVLDLGGGAYHARSLDDALALLSQIYDSTSKIQLNRVFVIGGGELCKAAMEHSRLNRIIATVIHNEVDCDVFFPIDFRSSQSCLPERKQDHSVLEAWVGSKVPQGKINENGFIYEFEMWIRDI [W169E] | -0.731 ± 0.17 | -0.375 ± 0.12
MDWQKSLTLIVALTLSRGIGLKNDLPWKLKSDMMFFSRVTSGLLVTRSTGQMNVVLMGRKTWESLPAHSRPLKNRINVVISRQEVLDLGGGAYHARSLDDALALLSQIYDSTSKIQLNRVFVIGGGELCKAAMEHSRLNRIIATVIHNEVDCDVFFPIDFRSSQSCLPFRKQDHSVLEAWVGSKVPQGKINENGFIYEFEMWIRDI [W169F] | -0.00839 ± 0.06 | -0.102 ± 0.032
MDWQKSLTLIVALTLSRGIGLKNDLPWKLKSDMMFFSRVTSGLLVTRSTGQMNVVLMGRKTWESLPAHSRPLKNRINVVISRQEVLDLGGGAYHARSLDDALALLSQIYDSTSKIQLNRVFVIGGGELCKAAMEHSRLNRIIATVIHNEVDCDVFFPIDFRSSQSCLPGRKQDHSVLEAWVGSKVPQGKINENGFIYEFEMWIRDI [W169G] | -0.444 ± 0.14 | -0.276 ± 0.12
MDWQKSLTLIVALTLSRGIGLKNDLPWKLKSDMMFFSRVTSGLLVTRSTGQMNVVLMGRKTWESLPAHSRPLKNRINVVISRQEVLDLGGGAYHARSLDDALALLSQIYDSTSKIQLNRVFVIGGGELCKAAMEHSRLNRIIATVIHNEVDCDVFFPIDFRSSQSCLPHRKQDHSVLEAWVGSKVPQGKINENGFIYEFEMWIRDI [W169H] | -0.341 ± 0.14 | -0.357 ± 0.029
MDWQKSLTLIVALTLSRGIGLKNDLPWKLKSDMMFFSRVTSGLLVTRSTGQMNVVLMGRKTWESLPAHSRPLKNRINVVISRQEVLDLGGGAYHARSLDDALALLSQIYDSTSKIQLNRVFVIGGGELCKAAMEHSRLNRIIATVIHNEVDCDVFFPIDFRSSQSCLPIRKQDHSVLEAWVGSKVPQGKINENGFIYEFEMWIRDI [W169I] | -0.242 ± 0.063 | -0.2 ± 0.12
MDWQKSLTLIVALTLSRGIGLKNDLPWKLKSDMMFFSRVTSGLLVTRSTGQMNVVLMGRKTWESLPAHSRPLKNRINVVISRQEVLDLGGGAYHARSLDDALALLSQIYDSTSKIQLNRVFVIGGGELCKAAMEHSRLNRIIATVIHNEVDCDVFFPIDFRSSQSCLPKRKQDHSVLEAWVGSKVPQGKINENGFIYEFEMWIRDI [W169K] | -0.728 ± 0.16 | -0.395 ± 0.044
MDWQKSLTLIVALTLSRGIGLKNDLPWKLKSDMMFFSRVTSGLLVTRSTGQMNVVLMGRKTWESLPAHSRPLKNRINVVISRQEVLDLGGGAYHARSLDDALALLSQIYDSTSKIQLNRVFVIGGGELCKAAMEHSRLNRIIATVIHNEVDCDVFFPIDFRSSQSCLPLRKQDHSVLEAWVGSKVPQGKINENGFIYEFEMWIRDI [W169L] | -0.101 ± 0.053 | -0.106 ± 0.14
MDWQKSLTLIVALTLSRGIGLKNDLPWKLKSDMMFFSRVTSGLLVTRSTGQMNVVLMGRKTWESLPAHSRPLKNRINVVISRQEVLDLGGGAYHARSLDDALALLSQIYDSTSKIQLNRVFVIGGGELCKAAMEHSRLNRIIATVIHNEVDCDVFFPIDFRSSQSCLPMRKQDHSVLEAWVGSKVPQGKINENGFIYEFEMWIRDI [W169M] | -0.00404 ± 0.056 | -0.126 ± 0.076
MDWQKSLTLIVALTLSRGIGLKNDLPWKLKSDMMFFSRVTSGLLVTRSTGQMNVVLMGRKTWESLPAHSRPLKNRINVVISRQEVLDLGGGAYHARSLDDALALLSQIYDSTSKIQLNRVFVIGGGELCKAAMEHSRLNRIIATVIHNEVDCDVFFPIDFRSSQSCLPNRKQDHSVLEAWVGSKVPQGKINENGFIYEFEMWIRDI [W169N] | -0.425 ± 0.16 | -0.13 ± 0.0069
MDWQKSLTLIVALTLSRGIGLKNDLPWKLKSDMMFFSRVTSGLLVTRSTGQMNVVLMGRKTWESLPAHSRPLKNRINVVISRQEVLDLGGGAYHARSLDDALALLSQIYDSTSKIQLNRVFVIGGGELCKAAMEHSRLNRIIATVIHNEVDCDVFFPIDFRSSQSCLPQRKQDHSVLEAWVGSKVPQGKINENGFIYEFEMWIRDI [W169Q] | -0.784 ± 0.022 | -0.407 ± 0.03
MDWQKSLTLIVALTLSRGIGLKNDLPWKLKSDMMFFSRVTSGLLVTRSTGQMNVVLMGRKTWESLPAHSRPLKNRINVVISRQEVLDLGGGAYHARSLDDALALLSQIYDSTSKIQLNRVFVIGGGELCKAAMEHSRLNRIIATVIHNEVDCDVFFPIDFRSSQSCLPRRKQDHSVLEAWVGSKVPQGKINENGFIYEFEMWIRDI [W169R] | -0.585 ± 0.2 | -0.296 ± 0.14
MDWQKSLTLIVALTLSRGIGLKNDLPWKLKSDMMFFSRVTSGLLVTRSTGQMNVVLMGRKTWESLPAHSRPLKNRINVVISRQEVLDLGGGAYHARSLDDALALLSQIYDSTSKIQLNRVFVIGGGELCKAAMEHSRLNRIIATVIHNEVDCDVFFPIDFRSSQSCLPSRKQDHSVLEAWVGSKVPQGKINENGFIYEFEMWIRDI [W169S] | -0.446 ± 0.084 | -0.327 ± 0.14
MDWQKSLTLIVALTLSRGIGLKNDLPWKLKSDMMFFSRVTSGLLVTRSTGQMNVVLMGRKTWESLPAHSRPLKNRINVVISRQEVLDLGGGAYHARSLDDALALLSQIYDSTSKIQLNRVFVIGGGELCKAAMEHSRLNRIIATVIHNEVDCDVFFPIDFRSSQSCLPTRKQDHSVLEAWVGSKVPQGKINENGFIYEFEMWIRDI [W169T] | -0.399 ± 0.089 | -0.423 ± 0.061
